At least one read-out could not be matched to a standard name with certainty. Starred links: 1 amine or outer side, 2 acyl side, 3 side chain; linkers in the order of their positions; H or OH if unused. Positions of bridges follow the written chain, without caps; N, C: chain ends. Residues, ends and D or L forms follow the SMILES beside them. *: point of attachment. C18 diacid = O=C(O)CCCCCCCCCCCCCCCCC(=O)*; γGlu = O=C(O)[C@H](CCC(=O)[*:2])N[*:1]; AEEA = NCCOCCOCC(=O)O
Assay: Accelerated chemical stability (RP-UPLC recovery and LCMS degradation pattern, 37° C.)
Assay type: physicochemical
Settings: for Recovery 2 W / Recovery TZ: LCMS, 8 mM sodium phosphate, 250 mM glycerol, pH 6.5
Procedure: In order to determine the chemical stability of CNP compounds in formulation, samples of CNP compounds in buffer were exposed to accelerated chemical degradation by heating. The stability of a given peptide was assessed by measuring recovery of intact peptide by quantification by RP-UPLC. To assess the chemical degradation pattern samples were also analysed by LC-MS.
Sample preparation: Samples for the 2 week study were prepared according to the principles described in Example 5.
Samples for the 6 week study were prepared by dissolving lyophilized peptide in buffer (8 mM phosphate, 250 mM glycerol, pH 7.4) to a nominal peptide concentration of 5000 nmol/ml followed by pH adjustment with 0.1 N HCl to pH 6.5.
Incubation: For the 2 week study a time-zero (TZ) sample was pulled and stored at −18° C. and the remaining volume was incubated at 37° C. Samples were pulled and stored at −18° C. after 2 weeks of incubation. Frozen samples were thawed, diluted to about 200 nmol/mL and the extent of chemical degradation was determined using LCMS as described.
For the 6 week study a time-zero (TZ) sample was pulled and stored at −18° C. and the remaining volume was incubated at 37° C. Samples were pulled on a weekly basis and stored at −18° C. until the last sampling time point at 6 weeks. Frozen samples were thawed, diluted to about 200 nmol/mL and the extent of chemical degradation was determined using RP-UPLC and LCMS as described.
Analysis of peptide recovery by RP-UPLC: The RP-UPLC method was performed on a Waters ACQUITY H-CLASS UPLC system fitted with a PDA detector. Separation was carried out on an ACQUITY UPLC BEH C8 Column (130 Å, 1.7 μm, 2.1 mm×150 mm) operating at a column temperature of 50° C. with eluent A (19.59 mM NH4H2PO4 41.71 mM (NH4)2HPO4, pH 6.5 and MeCN 9:1 v:v) and eluent B (80% MeCN in water). UV-detection was carried out at 214 nm. The analysis was performed by injection of 3 μL of sample onto the column which was eluted with a 1-step linear gradient of eluents A and B from 27 to 30% B over 20 minutes followed by a wash at 95% B over 2 minutes followed by a re-equilibration phase for 7 minutes at a constant flow rate of 0.3 mL/min. This yielded an analysis time of 30 minutes per sample. The area of the peak corresponding to intact CNP compound was given on a percentage scale relative to the total peptide peak area.
Analysis of chemical degradation patterns by LCMS: Samples were analysed on a […] UPLC from Thermo Scientific, using a Waters Acquity C18 reversed-phase column, 300 Å, […] particles 1 mm×150 mm. The compounds were separated by a linear gradient of solvent B from 5% to 55% over 48 minutes, using solvent A: water, 0.1% formic acid with 0.02% TFA and solvent B: acetonitrile, 0.1% formic acid with 0.02% TFA. Mass spectra were acquired by a Q Exactive Plus hybrid Quadrupole-Orbitrap mass spectrometer, BioPharma option (Thermo Scientific) interfaced with H-ESI II ion source. Data acquisitions were performed with a m/z 500 to 2000 scan range and a resolution of 30000.
The data list was aggregated into a summed table of the compounds. The table headers were defined as follows: […]
Results: The results from LCMS analysis of a 2 week accelerated degradation study on several CNP compounds of the present invention are summarised in Table 12. The results from RP-UPLC and LCMS analysis of a 6 week accelerated degradation study on CNP compound 9482 (Chem. 137) is summarised in Table 13 and Table 14 respectively.

Row | Compound | Recovery 2 W (2 weeks at 37° C.) | Recovery TZ (time zero) | RP-UPLC peptide recovery, % relative to total peak area, 1 Week (RP-UPLC, 1 week at 37° C.) | RP-UPLC peptide recovery, % relative to total peak area, 2 Week (RP-UPLC, 2 weeks at 37° C.) | RP-UPLC peptide recovery, % relative to total peak area, 3 Week (RP-UPLC, 3 weeks at 37° C.) | RP-UPLC peptide recovery, % relative to total peak area, 4 Week (RP-UPLC, 4 weeks at 37° C.) | RP-UPLC peptide recovery, % relative to total peak area, 5 Week (RP-UPLC, 5 weeks at 37° C.) | RP-UPLC peptide recovery, % relative to total peak area, 6 Week (RP-UPLC, 6 weeks at 37° C.) | RP-UPLC peptide recovery, % relative to total peak area, TZ (RP-UPLC, time zero)
1 | CC[C@H](C)[C@@H]1NC(=O)[C@H](CCCNC(=N)N)NC(=O)[C@H](CC(=O)O)NC(=O)[C@H](CC(C)C)NC(=O)[C@@H]2CCCN2C(=O)[C@H](CC(C)C)NC(=O)CNC(=O)[C@H](Cc2ccccc2)NC(=O)[C@@H](NC(=O)CNC(=O)[C@H](CCC(N)=O)NC(=O)[C@H](CO)NC(=O)[C@H](CC(C)C)NC(=O)CNC(=O)[C@H](CCCCN)NC(=O)[C@H](CCCCN)NC(=O)[C@H](CCC(N)=O)NC(=O)[C@H](C)NC(=O)CNC(=O)[C@H](CCCCN)NC(=O)[C@H](Cc2ccc(O)cc2)NC(=O)COCCOCCNC(=O)COCCOCCNC(=O)COCCOCCNC(=O)COCCOCCNC(=O)CC[C@H](NC(=O)CC[C@H](NC(=O)CC[C@H](NC(=O)CCCCCCCCCCCCCCCCC(=O)O)C(=O)O)C(=O)O)C(=O)O)CSSC[C@@H](C(=O)O)NC(=O)CNC(=O)[C@H](CC(C)C)NC(=O)CNC(=O)[C@H](CO)NC(=O)[C@H](CC(C)C)NC(=O)[C@H](CO)NC(=O)CNC1=O [Compound 9480] ({C18 diacid-γGlu-γGlu-γGlu-AEEA-AEEA-AEEA-AEEA}-YKGAQKKGLSQGCFGLPLDRIGSLSGLGC-OH; disulfide 13-29) | 100.5 | 100 | – | – | – | – | – | – | –
2 | CC[C@H](C)[C@@H]1NC(=O)[C@H](CCCNC(=N)N)NC(=O)[C@H](CC(=O)O)NC(=O)[C@H](CC(C)C)NC(=O)[C@@H]2CCCN2C(=O)[C@H](CC(C)C)NC(=O)CNC(=O)[C@H](Cc2ccccc2)NC(=O)[C@@H](NC(=O)CNC(=O)[C@H](CO)NC(=O)[C@H](CO)NC(=O)[C@H](CC(C)C)NC(=O)CNC(=O)[C@H](CCCCN)NC(=O)[C@H](CCCCN)NC(=O)[C@H](CCC(N)=O)NC(=O)[C@H](C)NC(=O)CNC(=O)[C@H](CCCCN)NC(=O)[C@H](Cc2ccc(O)cc2)NC(=O)[C@H](CCCCN)NC(=O)[C@H](CCCNC(=N)N)NC(=O)[C@H](C)NC(=O)[C@H](CCC(N)=O)NC(=O)[C@@H]2CCCN2C(=O)[C@H](Cc2c[nH]cn2)NC(=O)[C@H](CCC(=O)O)NC(=O)[C@H](CCC(N)=O)NC(=O)CC[C@H](NC(=O)CC[C@H](NC(=O)CC[C@H](NC(=O)CC[C@H](NC(=O)CC[C@H](NC(=O)CCCCCCCCCCCCCCCCC(=O)O)C(=O)O)C(=O)O)C(=O)O)C(=O)O)C(=O)O)CSSC[C@@H](C(=O)O)NC(=O)CNC(=O)[C@H](CC(C)C)NC(=O)CNC(=O)[C@H](CO)NC(=O)[C@H](CC(C)C)NC(=O)[C@H](CO)NC(=O)CNC1=O [Compound 9482] ({C18 diacid-γGlu-γGlu-γGlu-γGlu-γGlu}-QEHPQARKYKGAQKKGLSSGCFGLPLDRIGSLSGLGC-OH; disulfide 21-37) | 99.6 | 100 | 89.1% | 89.1% | 86.9% | 85.5% | 83.5% | 81.8% | 90.6%
